# The supplement of paper PMC8728848
# Some of the results follow.
# How the values were obtained:
# Test in all cases: glycan array binding signal (z-score within array); higher = stronger binding
# Settings in all cases: glycan notation: IUPAC condensed, linker removed
# [1] = biological target: GlcNAc6S(b1-3)Gal(b1-4)GlcNAc
# Method in brief: (§1)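 Glycan array data came from 3228 arrays in the Consortium for Functional Glycomics database, and only arrays with an available protein sequence were kept. Glycan names were put into IUPAC-condensed notation, and columns mapping to the same glycan were averaged. The binding signal is a within-array Z-score, averaged across arrays of one protein sequence run at different concentrations or buffers and across linkers. A negative Z-score can be read as non-binding.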
# [2] = biological target: Kdn(a2-3)Gal(b1-3)GalNAc
# Method in brief: as §1
# [3] = biological target: Kdn(a2-3)Gal(b1-3)GlcNAc
# Method in brief: as §1
# [4] = biological target: Kdn(a2-3)Gal(b1-4)Glc
# Method in brief: as §1
# [5] = biological target: Kdn(a2-3)Gal(b1-4)GlcNAc
# Method in brief: as §1
# [6] = biological target: Kdn(a2-3)Gal(b1-4)[Fuc(a1-3)]GlcNAc
# Method in brief: as §1
# [7] = biological target: Kdn(a2-6)Gal(b1-4)GlcNAc
# Method in brief: as §1
# [8] = biological target: Man(a1-2)Man(a1-2)Man(a1-3)Man
# Method in brief: as §1
# [9] = biological target: Man(a1-2)Man(a1-2)Man(a1-3)[Man(a1-2)Man(a1-3)[Man(a1-2)Man(a1-6)]Man(a1-6)]Man(b1-4)GlcNAc(b1-4)GlcNAc
# Method in brief: as §1
# [10] = biological target: Man(a1-2)Man(a1-2)Man(a1-3)[Man(a1-2)Man(a1-6)[Man(a1-3)]Man(a1-6)]Man(b1-4)GlcNAc(b1-4)GlcNAc
# Method in brief: as §1
# [11] = biological target: Man(a1-2)Man(a1-2)Man(a1-6)[Man(a1-3)]Man
# Method in brief: as §1
# [12] = biological target: Man(a1-2)Man(a1-3)Man
# Method in brief: as §1
# [13] = biological target: Man(a1-2)Man(a1-3)[Man(a1-2)Man(a1-6)]Man
# Method in brief: as §1
# [14] = biological target: Man(a1-2)Man(a1-3)[Man(a1-2)Man(a1-6)]Man(a1-6)[Man(a1-2)Man(a1-2)Man(a1-3)]Man
# Method in brief: as §1
# [15] = biological target: Man(a1-2)Man(a1-3)[Man(a1-2)Man(a1-6)]Man(a1-6)[Man(a1-2)Man(a1-2)Man(a1-3)]Man(b1-4)GlcNAc(b1-4)GlcNAc
# Method in brief: as §1
# [16] = biological target: Man(a1-2)Man(a1-3)[Man(a1-3)[Man(a1-6)]Man(a1-6)]Man(b1-4)GlcNAc(b1-4)GlcNAc
# Method in brief: as §1
# [17] = biological target: Man(a1-2)Man(a1-3)[Man(a1-6)]Man(a1-6)[Man(a1-2)Man(a1-3)]Man(b1-4)GlcNAc(b1-4)GlcNAc
# Method in brief: as §1
# [18] = biological target: Man(a1-2)Man(a1-6)[Man(a1-3)]Man(a1-6)[Man(a1-2)Man(a1-2)Man(a1-3)]Man
# Method in brief: as §1
# [19] = biological target: Man(a1-2)Man(a1-6)[Man(a1-3)]Man(a1-6)[Man(a1-2)Man(a1-2)Man(a1-3)]Man(b1-4)GlcNAc(b1-4)GlcNAc
# Method in brief: as §1
# [20] = biological target: Man(a1-3)[Man(a1-6)]Man
# Method in brief: as §1
# [21] = biological target: Man(a1-3)[Man(a1-6)]Man(a1-6)[Man(a1-2)Man(a1-3)]Man(b1-4)GlcNAc(b1-4)GlcNAc
# Method in brief: as §1
# [22] = biological target: Man(a1-3)[Man(a1-6)]Man(a1-6)[Man(a1-3)]Man
# Method in brief: as §1
# [23] = biological target: Man(a1-3)[Man(a1-6)]Man(a1-6)[Man(a1-3)]Man(b1-4)GlcNAc(b1-4)GlcNAc
# Method in brief: as §1
# [24] = biological target: Man(a1-3)[Man(a1-6)]Man(b1-4)GlcNAc(b1-4)GlcNAc
# Method in brief: as §1
# [25] = biological target: Man(a1-3)[Man(a1-6)]Man(b1-4)GlcNAc(b1-4)[Fuc(a1-6)]GlcNAc
# Method in brief: as §1
# [26] = biological target: Man(a1-6)Man
# Method in brief: as §1
# [27] = biological target: Man(b1-4)GlcNAc
# Method in brief: as §1
# [28] = biological target: MurNAc(b1-4)GlcNAc
# Method in brief: as §1
# [29] = biological target: Neu5Ac(a2-3)Gal
# Method in brief: as §1
# [30] = biological target: Neu5Ac(a2-3)Gal(b1-3)GalNAc
# Method in brief: as §1
# [31] = biological target: Neu5Ac(a2-3)Gal(b1-3)GalNAc(b1-3)Gal(a1-4)Gal(b1-4)Glc
# Method in brief: as §1
# [32] = biological target: Neu5Ac(a2-3)Gal(b1-3)GalNAc(b1-4)[Neu5Ac(a2-3)]Gal(b1-4)Glc
# Method in brief: as §1
# [33] = biological target: Neu5Ac(a2-3)Gal(b1-3)GalNAc(b1-4)[Neu5Ac(a2-8)Neu5Ac(a2-3)]Gal(b1-4)Glc
# Method in brief: as §1
# [34] = biological target: Neu5Ac(a2-3)Gal(b1-3)GalNAc6S
# Method in brief: as §1
# [35] = biological target: Neu5Ac(a2-3)Gal(b1-3)GlcNAc
# Method in brief: as §1
# [36] = biological target: Neu5Ac(a2-3)Gal(b1-3)GlcNAc(b1-2)Man
# Method in brief: as §1
# [37] = biological target: Neu5Ac(a2-3)Gal(b1-3)GlcNAc(b1-2)Man(a1-3)[GlcNAc(b1-4)][Neu5Ac(a2-3)Gal(b1-3)GlcNAc(b1-2)Man(a1-6)]Man(b1-4)GlcNAc(b1-4)GlcNAc
# Method in brief: as §1
# [38] = biological target: Neu5Ac(a2-3)Gal(b1-3)GlcNAc(b1-2)Man(a1-3)[Neu5Ac(a2-3)Gal(b1-3)GlcNAc(b1-2)Man(a1-6)]Man(b1-4)GlcNAc(b1-4)GlcNAc
# Method in brief: as §1
# [39] = biological target: Neu5Ac(a2-3)Gal(b1-3)GlcNAc(b1-3)Gal(b1-3)GlcNAc
# Method in brief: as §1
# [40] = biological target: Neu5Ac(a2-3)Gal(b1-3)GlcNAc(b1-3)Gal(b1-4)GlcNAc
# Method in brief: as §1
# [41] = biological target: Neu5Ac(a2-3)Gal(b1-3)GlcNAc(b1-3)GalNAc
# Method in brief: as §1
# [42] = biological target: Neu5Ac(a2-3)Gal(b1-3)GlcNAc(b1-4)Gal(b1-4)Glc
# Method in brief: as §1
# [43] = biological target: Neu5Ac(a2-3)Gal(b1-3)GlcNAc(b1-6)GalNAc
# Method in brief: as §1
# [44] = biological target: Neu5Ac(a2-3)Gal(b1-3)GlcNAc6S
# Method in brief: as §1
# [45] = biological target: Neu5Ac(a2-3)Gal(b1-3)[Fuc(a1-4)]GlcNAc
# Method in brief: as §1
binder,measurement,setting,value
"OVGAL11 (Ovis aries), AAF64320 (protein) MDSLPNPYLQSVSLTVCYMVKIKANLLSAFGKNPELQVDFGTGTGQGGNIPFRFWYCDGMVVMNTFTDGSWQKEEKVLTDAFVPGQPFELQFLVLEKEYQVFVKNKPICQFAHRLPLQSVKMLDVRGDIVLTSVDTL",glycan array binding signal (z-score),[1],-0.083
same,glycan array binding signal (z-score),[2],-0.066
same,glycan array binding signal (z-score),[3],-0.191
same,glycan array binding signal (z-score),[4],-0.108
same,glycan array binding signal (z-score),[5],0.277
same,glycan array binding signal (z-score),[6],-0.087
same,glycan array binding signal (z-score),[7],-0.115
same,glycan array binding signal (z-score),[8],4.38
same,glycan array binding signal (z-score),[9],-0.54
same,glycan array binding signal (z-score),[10],-0.15
same,glycan array binding signal (z-score),[11],-0.179
same,glycan array binding signal (z-score),[12],-0.111
same,glycan array binding signal (z-score),[13],-0.209
same,glycan array binding signal (z-score),[14],-0.098
same,glycan array binding signal (z-score),[15],-0.133
same,glycan array binding signal (z-score),[16],-0.611
same,glycan array binding signal (z-score),[17],0.159
same,glycan array binding signal (z-score),[18],-0.038
same,glycan array binding signal (z-score),[19],-0.092
same,glycan array binding signal (z-score),[20],0.003
same,glycan array binding signal (z-score),[21],-0.077
same,glycan array binding signal (z-score),[22],-0.102
same,glycan array binding signal (z-score),[23],-0.269
same,glycan array binding signal (z-score),[24],-0.23
same,glycan array binding signal (z-score),[25],-0.069
same,glycan array binding signal (z-score),[26],-0.048
same,glycan array binding signal (z-score),[27],-0.293
same,glycan array binding signal (z-score),[28],-0.098
same,glycan array binding signal (z-score),[29],-0.094
same,glycan array binding signal (z-score),[30],-0.147
same,glycan array binding signal (z-score),[31],-0.299
same,glycan array binding signal (z-score),[32],-0.203
same,glycan array binding signal (z-score),[33],-0.069
same,glycan array binding signal (z-score),[34],-0.064
same,glycan array binding signal (z-score),[35],-0.195
same,glycan array binding signal (z-score),[36],-0.053
same,glycan array binding signal (z-score),[37],-0.08
same,glycan array binding signal (z-score),[38],-0.043
same,glycan array binding signal (z-score),[39],-0.086
same,glycan array binding signal (z-score),[40],-0.233
same,glycan array binding signal (z-score),[41],-0.121
same,glycan array binding signal (z-score),[42],-0.033
same,glycan array binding signal (z-score),[43],-0.132
same,glycan array binding signal (z-score),[44],-0.316
same,glycan array binding signal (z-score),[45],0.028
